Test system: writhing syndrome
Assay: Analgesic activity: antagonism to acetic acid writhing syndrome in mice (Experiment J)
Type: in vivo, mice (dd strain male)
Description: Analgesic activity of the compound of the present invention in comparison with the known compounds.
Analgesic activity of the compound was tested as the measure of antagonism to writhing syndrome appeared when 0.1 ml/10g of 0.7% acetic acid was intraperitoneally injected to the dd strain male mice having 17 - 20 grs. body weight which had been abstinence from food for 18 hours.
The compounds under test were orally administered in a form of suspension in a 5% aqueous solution of gum arabic. After one hour from the administration, the onset times required for the writhing syndrome were scored.
In another Experiment in the combined use of the compounds under test and Codeine phosphate, 10 - 20 mg/kg of Codeine phosphate were orally administered immediatly after the oral administration of the compounds under test.

## COc1ccc2c3c1O[C@H]1[C@@H](O)C=C[C@H]4[C@@H](C2)N(C)CC[C@@]341 [Codeine Phosphate]
Control line (5% G.A.) with Codeine Phosphate 10 mg/kg
  Onset time of writhing syndrome, mean ± S.E.: 4.8 ± 0.5 min
Control line (5% G.A.) with Codeine Phosphate 20 mg/kg
  Onset time of writhing syndrome, mean ± S.E.: 5.7 ± 0.6 min

Source: patent publication US3985779A, “M-phenoxyphenyl propionic acid derivatives and preparation thereof” (Eisai Co., Ltd., priority 1973, dated 1976)
